# In the supplement of paper PMC12217912:
# The other results are listed elsewhere or left out. The full chains were built here from the parent and the listed change. Inactive controls read about 0.05.
# B1: TEV protease; numbered along this chain (parent)
# chain: MGESLFKGPRDYNPISSSICHLTNESDGHTTSLYGIGFGPFIITNKHLFRRNNGTLVVQSLHGVFKVKDTTTLQQHLVDGRDMIIIRMPKDFPPFPQKLKFREPQREERICLVTTNFQTKSMSSMVSDTSCTFPSGDGIFWKHWIQTKDGQCGSPLVSTRDGFIVGIHSASNFTNTNNYFTSVPKNFMELLTNQEAQQWVSGWRLNADSVLWGGHKVFMVKPEEPFQPVKEATQL
# Variants of: B1
# Assay: raw area under fraction-flipped curve 0-4 h after induction (AUC4h, not background-subtracted), DNA-recorder readout of cleavage of the substrate (dimensionless); higher = more cleavage of the substrate by the protease variant
# Conditions: temperature: 34 °C; time window: 0-4 h after rhamnose induction
# 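Further: Bxb1 expression induced with 0.2% (w/v) L-rhamnose at OD600 near 0.5, cultures sampled hourly, flipped fraction per protease–substrate barcode pair counted by paired-end Illumina sequencing.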
Variant,area with substrate ENLYFQC,area with substrate ENLYFQL,area with substrate ENLYFQN,area with substrate ENLYFQR,area with substrate ENLYFQS,area with substrate ENLYFQV,area with substrate ENLYFQD,area with substrate ENLYFQE,area with substrate ENLYFQF,area with substrate ENLYFQI,area with substrate ENLYFQM,area with substrate ENLYFQP,area with substrate ENLYFQQ,area with substrate ENLYFQT,area with substrate ENLYFQW,area with substrate ENLYFQY,area with substrate ENLYFQG,area with substrate ENLYFQH,area with substrate ENLYFQK
MGESLFKGPRDYNPISSSICHLTNESDGHTTSLYGIGFGPFIITNKHLFRRNNGTLVVQSLHGVFKVKDTTTLQQHLVDGRDMIIIRMPKDFPPDPQKLKFREPQREERICLVTTNFQTKSMSSMVSDTSCTFPSGDGIFWKHWIQTKDGQCGSPLVSTRDGFIVGIHSASNFTNTNNYFTSVPKNFMELLTNQEAQQWVSGWRLNADSVLWGGHKVFMVKPEEPFQPVKEATQL [F95D],0.0469,0.0512,0.0441,0.0454,0.0451,0.0421,–,–,–,–,–,–,–,–,–,–,–,–,–
MGESLFKGPRDYNPISSSICHLTNESDGHTTSLYGIGFGPFIITNKHLFRRNNGTLVVQSLHGVFKVKDTTTLQQHLVDGSDMIIIRMPKDFPPFPQKLKFREPQREERICLVTTNFQTKSMSSMVSDTSCTFPSGDGIFWKHWIQTKDGQCGSPLVSTRDGFIVGIHSASNFTNTNNYFTSVPKNFMELLTNQEAQQWVSGWRLNADSVLWGGHKVFMVKPEEPFQPVKEATQL [R81S],0.0836,0.0567,0.0509,0.0614,0.0778,0.0464,0.0496,0.0715,0.0618,0.0544,0.0466,0.0825,0.0509,0.0516,0.052,0.0589,–,–,–
MGESNFKGPRDYNPISSSICHLTNESDGHTTSLYGIGFGPFIITNKHLFRRNNGTLVVQSLHGVFKVKDTTTLQQHLVDGRDMIIIRMPKDFPPFPQKLKFREPQREERICLVTTNFQTKSMSSMVSDTSCTFPSGDGIFWKHWIQTKDGQCGSPLVSTRDGFIVGIHSASNFTNTNNYFTSVPKNFMELLTNQEAQQWVSGWRLNADSVLWGGHKVFMVKPEEPFQPVKEATQL [L5N],–,–,0.0776,0.0451,0.123,–,0.064,–,–,–,0.101,0.0551,0.087,0.0629,–,–,–,–,–
MGESLFKGPRDYNPISSSICHLTNESDGHTTSLYGIGFGPFIITNKHLFRRNNGTLVVQSLHGVFKVKDTTTLQQHLVDGRDMIIIRMPKDFPPFPQKLKFREPQREERICLVTTNFQTKSMSSMVSDTSCTFPSGDGIFWKHWIQTKDGQCGSPLVSTRDGFIVGIHSASNFTNTNNYFTSVPKNFMELLTNQEAQQWVSGWRLNADSVLWGGHKVFMVKPEEHFQPVKEATQL [P225H],–,–,–,–,0.0947,–,0.0653,–,–,–,0.0781,0.0556,–,0.0759,0.0586,–,0.0958,0.0561,0.0482
MGESLFKGPRDYNPISSSICHLTNESDGHTTSLYGIGFGPFIITNKHLFRRNNGTLVVQSLHGVFKVKDTTTLQQHLVDGRDMIIIRMPKDFPPFPQKLKFREPQREERICLVTTNFQTKSMSSMVSDTSCTFPSGDGIFWKHWIQTKDGQCGSPLVSTRDGFIVGIHSAANFTNTNNYFTSVPKNFMELLTNQEAQQWVSGWRLNADSVLWGGHKVFMVKPEEPFQPVKEATQL [S171A],–,–,–,–,0.0909,0.0486,0.0702,–,0.0804,0.0515,–,–,0.0713,–,–,–,0.0876,0.0726,–
MGESLFKGPRDYNPISSSICHLTNESDGHTTSLYGIGFGPFIITNKHLFRRNNGTLVVQSLHGVFKVKDTTTLQQHLVDGRDMIIIRMPKDFPPFPQKLKFREPQREERICLVTTNFQTKSMSSMVSDTSCTFPSGDGCFWKHWIQTKDGQCGSPLVSTRDGFIVGIHSASNFTNTNNYFTSVPKNFMELLTNQEAQQWVSGWRLNADSVLWGGHKVFMVKPEEPFQPVKEATQL [I139C],–,0.0595,0.0929,0.0671,0.122,–,0.0843,–,–,–,0.108,0.0569,–,0.0818,–,0.119,0.102,–,0.0605
MGESLFKGPRDYNPISSSICHLTNESDGHTTSLYGIGFGPFIITNKHLFRRNNGTLVVQSLHGVFKVKDTTTLQQHLVDGRDMIIIRMPKDFPPFPQKLKFREPQREERICLVTTNFQTKSMSSMVSDTSCTFPSGDGIFWKHWIQTKDGQCGSPLVSTRDGFIVGIHSASNFTNTNNYFTSVPKNFMELLTNQEAQQWVSTWRLNADSVLWGGHKVFMVKPEEPFQPVKEATQL [G202T],–,0.0514,–,0.0598,0.0689,–,0.048,–,–,0.049,–,–,0.0771,0.0554,–,–,–,0.0687,0.0808
MGESLFKGPRDYNPISSSICHLTNESDGHTTSLYGIGFGPFIITNKHLFRRNNGTLVVQSLHGVFKVKDTTTLQQHLVDGRDMIIIRMPKDFPPFPQKLKFREPQREERICLVTTNFQTKSMSSMVSDTSCTFPSGDGIYWKHWIQTKDGQCGSPLVSTRDGFIVGIHSASNFTNTNNYFTSVPKNFMELLTNQEAQQWVSGWRLNADSVLWGGHKVFMVKPEEPFQPVKEATQL [F140Y],–,0.048,–,0.0559,0.0904,–,0.0597,–,–,0.0528,–,–,0.0635,–,–,0.0561,–,0.0722,0.0667
MGESLFKGPRDYNPISSSICHLTNESDGHTTSLYGIGFGPFIITNKHLFRRNNGTLVVQSLHGVFKVKDTTTLQQHLVDGRDMIIIRMPKDFPPFPQKLKFREPPREERICLVTTNFQTKSMSSMVSDTSCTFPSGDGIFWKHWIQTKDGQCGSPLVSTRDGFIVGIHSASNFTNTNNYFTSVPKNFMELLTNQEAQQWVSGWRLNADSVLWGGHKVFMVKPEEPFQPVKEATQL [Q105P],–,0.0552,0.0498,0.0516,0.0515,0.0592,0.0431,–,–,0.039,0.0537,0.0719,–,–,0.0326,–,–,0.0453,0.0492
MGESLFKGPRDYNPISSSICHLTNESDGHTTSLYGIGFGPFIITNKHLFRRNNGTLVVQSLHGVFKVKDTTTLQQHLVDGRDMIIIRMPKDFPPFPQKLKFREPQREERICLVTTNFQDKSMSSMVSDTSCTFPSGDGIFWKHWIQTKDGQCGSPLVSTRDGFIVGIHSASNFTNTNNYFTSVPKNFMELLTNQEAQQWVSGWRLNADSVLWGGHKVFMVKPEEPFQPVKEATQL [T119D],–,0.0606,–,0.0632,0.0958,–,0.0478,–,–,–,0.0671,0.038,–,–,–,0.0766,–,0.0862,–
MGESLFKGPRDYNPISSSICHLTNESDGHTTSLYGIGFGPFIITNKHLFRRNNETLVVQSLHGVFKVKDTTTLQQHLVDGRDMIIIRMPKDFPPFPQKLKFREPQREERICLVTTNFQTKSMSSMVSDTSCTFPSGDGIFWKHWIQTKDGQCGSPLVSTRDGFIVGIHSASNFTNTNNYFTSVPKNFMELLTNQEAQQWVSGWRLNADSVLWGGHKVFMVKPEEPFQPVKEATQL [G54E],–,–,0.0624,0.0564,0.075,–,0.0662,–,0.0546,0.0536,–,–,–,0.0731,–,–,0.0726,–,0.0602
